The other results are listed elsewhere or left out. Single values of this set are uncertain. Values with irradiation are relative to irradiated vehicle.
These molecules were tested on A549-Dual (assay: NF-kB reporter (SEAP) activity, viability-corrected, relative to vehicle (fold change vs vehicle); higher = more activation of STING-IRF / NF-kB immune response reporter). Conditions: 10 µM; irradiation: 8 Gy/4 fr.
With CN1CCc2nc(C(=O)NC3CC(C(=O)N(C)C)CCC3NC(=O)C(=O)Nc3ccc(Cl)cn3)sc2C1.Cc1ccc(S(=O)(=O)O)cc1.O (centres undefined) [Edoxaban] the NF-kB reporter was 0.718.
Molecule O=C1C(O)=C(C2CCC(c3ccc(Cl)cc3)CC2)C(=O)c2ccccc21 (centres undefined) [Atovaquone] has an NF-kB reporter of 0.5.
CNC1C(O)C(OC2C(NC(=O)C(O)CN)CC(N)C(OC3OC(CN)C(O)C(O)C3O)C2O)OCC1(C)O.O=S(=O)(O)O (centres undefined) [Isepamicin Sulphate] gave an NF-kB reporter of 1.02.
In the case of Cc1cccc(Nc2ccncc2S(=O)(=O)NC(=O)NC(C)C)c1 [Torsemide], the NF-kB reporter is reported as 0.785.
In the case of Nc1ccc(S(=O)(=O)[N]([Na])c2cnc3ccccc3n2)cc1 [Sulfaquinoxaline sodium], the NF-kB reporter is reported as 0.964.
In the case of O=C1CC(c2ccc(O)c(O)c2)Oc2cc(O)cc(O)c21 (centres undefined) [Eriodictyol], the NF-kB reporter is reported as 1.57.
Cc1ncc(CSSCc2cnc(C)c(O)c2CO)c(CO)c1O [Pyrithioxin] gave an NF-kB reporter of 0.806.
For CCOC(=O)C(CCc1ccccc1)NC1CCc2ccccc2N(CC(=O)O)C1=O.Cl (centres undefined) [Benazepril HCl], the NF-kB reporter was 0.773.
With COc1ccc(Cl)cc1C(=O)NCCc1ccc(S(=O)(=O)NC(=O)NC2CCCCC2)cc1 [Glyburide (Glibenclamide)] the NF-kB reporter was 0.542.
Work on C[N+](C)(C)CCOP(=O)([O-])OP(=O)([O-])OCC1OC(n2ccc(N)nc2=O)C(O)C1O.[Na+] (centres undefined) [Citicoline sodium] yielded an NF-kB reporter of 0.641.
In the case of C=CC(C)(O)CC/C=C(\C)CCC=C(C)C (centres undefined) [Nerolidol], the NF-kB reporter is reported as 0.725.
With COc1cc(CNC(=O)CCCCCCC(C)C)ccc1O [Dihydrocapsaicin] the NF-kB reporter was 0.56.
For COc1cc2c(cc1OC)C1Cc3ccc(OC)c(OC)c3CN1CC2 (centres undefined) [Rotundine], the NF-kB reporter was 0.694.
Cc1ccc(Sc2ccccc2N2CCNCC2)c(C)c1 [Vortioxetine] showed an NF-kB reporter of 0.598.
For O=C(O)CCCCCCCC(O)C(O)CCCCCCO (centres undefined) [Aleuritic Acid], the NF-kB reporter was 0.795.
Molecule O.O.OCC1OC(OC2OC(CO)C(O)C(O)C2O)C(O)C(O)C1O [D-(+)-Trehalose dihydrate] has an NF-kB reporter of 1.12.
In the case of O=C1NS(=O)(=O)c2ccccc21 [Saccharin], the NF-kB reporter is reported as 1.02.
In the case of Clc1ccc(CCC(Cn2ccnc2)Sc2c(Cl)cccc2Cl)cc1.O=[N+]([O-])O (centres undefined) [Butoconazole nitrate], the NF-kB reporter is reported as 0.598.
For CCC(C)C(=O)OC1CC(O)C=C2C=CC(C)C(CCC(O)CC(O)CC(=O)O)C21 (centres undefined) [Pravastatin], the NF-kB reporter was 0.736.
Work on Cc1ccc(/C=C2\C(=O)C3(C)CCC2C3(C)C)cc1 (centres undefined) [4-Methylbenzylidene camphor] yielded an NF-kB reporter of 0.811.
For Cl.Nc1ccc(N=Nc2ccccc2)c(N)n1 [Phenazopyridine HCl], the NF-kB reporter was 0.84.
In the case of COc1ccc(O)cc1 [Mequinol], the NF-kB reporter is reported as 1.03.
Cl.Cl.N=C(NCCCCCCNC(=N)NC(=N)Nc1ccc(Cl)cc1)NC(=N)Nc1ccc(Cl)cc1 [Chlorhexidine?2HCl] showed an NF-kB reporter of 2.48.
In the case of C#CC1(O)CCC2C3CCC4=CC(=O)CCC4C3CCC21CC (centres undefined) [Norgestrel], the NF-kB reporter is reported as 0.626.
Work on CCOC(=O)C(CCc1ccccc1)NC(C)C(=O)N1C(C(=O)O)CC2CCCCC21 (centres undefined) [Trandolapril] yielded an NF-kB reporter of 0.785.
In the case of C=CCCCCCCCCC(=O)[O-].C=CCCCCCCCCC(=O)[O-].[Zn+2] [Zinc Undecylenate], the NF-kB reporter is reported as 0.739.
O.c1cnc2c(c1)ccc1cccnc12 [1, 10-Phenanthroline monohydrate] showed an NF-kB reporter of 2.76.
CCN1CCCC1CNC(=O)c1cc(S(N)(=O)=O)ccc1OC (centres undefined) [Levosulpiride] showed an NF-kB reporter of 0.606.
CC1OC(OC2C(Oc3cc(O)c(C(=O)CCc4ccc(O)cc4)c(O)c3)OC(CO)C(O)C2O)C(O)C(O)C1O (centres undefined) [Naringin Dihydrochalcone] showed an NF-kB reporter of 1.17.
In the case of CCOC(=O)C(CCc1ccccc1)NC(C)C(=O)N(CC(=O)O)C1Cc2ccccc2C1.Cl (centres undefined) [Delapril Hydrochloride], the NF-kB reporter is reported as 0.878.
For CN(C)CC(c1ccc(O)cc1)C1(O)CCCCC1 (centres undefined) [Desvenlafaxine], the NF-kB reporter was 0.879.
CCN1CC(CCN2CCOCC2)C(c2ccccc2)(c2ccccc2)C1=O.Cl.O (centres undefined) [Doxapram HCl] was tested, and the NF-kB reporter was 0.642.
Work on CC(C)COCC(CN(Cc1ccccc1)c1ccccc1)N1CCCC1.Cl.O (centres undefined) [Bepridil hydrochloride] yielded an NF-kB reporter of 0.697.
Work on O=C(NCc1c(F)cc(F)cc1F)c1cn2c(c(O)c1=O)C(=O)N1C3CCC(C3)OC1C2 (centres undefined) [Bictegravir] yielded an NF-kB reporter of 1.19.
For CCCOc1ccc2nc(NC(=O)OC)[nH]c2c1 [Oxibendazole], the NF-kB reporter was 0.951.
With COC(=O)C1=C(C)NC(C)=C(C(=O)OCCN2CCN(C(c3ccccc3)c3ccccc3)CC2)C1c1cccc([N+](=O)[O-])c1 (centres undefined) [Manidipine] the NF-kB reporter was 0.76.
Molecule CCOC(=O)c1ccc(N)cc1.Cl [Benzocaine hydrochloride] has an NF-kB reporter of 0.603.
COC(=O)C1=C(C)NC(C)=C(C(=O)OC2CCCN(Cc3ccccc3)C2)C1c1cccc([N+](=O)[O-])c1.Cl (centres undefined) [Benidipine HCl] gave an NF-kB reporter of 0.648.
For Clc1ccc2c(c1)CCc1cccnc1C2=C1CCNCC1 [Desloratadine], the NF-kB reporter was 0.536.

From the supplement of paper PMC9174493
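Further: viability correction based on the alamar blue assay, with concentrations leaving 10% survival or less dropped.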
